± gives the uncertainty stated by the source. Shown are siRNA guide strands that differ only in the seed, positions 2 to 7.
Experiments:
M565 = test: cell viability relative to lipid-only control; higher = less toxic; conditions: concentration: 10 nM; 96 h; Mus musculus
H460 = test: as above; conditions: concentration: 10 nM; 96 h; Homo sapiens
HeyA8 = test: as above; conditions: concentration: 10 nM; 96 h; Homo sapiens
3LL = test: cell viability relative to siNT1 control; HeyA8 human ovarian and H460 human lung cancer; M565 mouse liver and 3LL mouse lung cancer; siNT1 is a non-toxic control siRNA; higher = less toxic; conditions: concentration: 10 nM; 96 h; Mus musculus
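Wherever cell viability relative to lipid-only control is given: reverse lipid transfection in 384-well plates, in triplicate, of duplexes on a non-toxic 19mer backbone with passenger strand 2′-O-methylated at positions 1 and 2, luminescence viability read-out.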
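Wherever cell viability relative to siNT1 control is given: Luminescence-based viability of cells reverse transfected in 384-well plates with lipid-complexed siRNAs built on a non-toxic 19mer backbone whose passenger strand carries 2′-O-methyl groups at positions 1 and 2, triplicates.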

Sequence	cell viability (M565) [%]	cell viability (H460) [%]	cell viability (HeyA8) [%]	cell viability (3LL) [%]
UCUAAUUACAUGUAAACCAAA	67.2 ± 13	54 ± 6.8	87.8 ± 15	93.5 ± 16
UAAAUACACAUGUAAACCAAA	105 ± 8.8	88.6 ± 10	102 ± 11	58.8 ± 4.2
UCAUUUGACAUGUAAACCAAA	65.3 ± 6.9	55.9 ± 6.8	53.3 ± 4.8	87.9 ± 15
UCCUGUAACAUGUAAACCAAA	65.5 ± 18	94.8 ± 2.7	79.2 ± 3.9	87.9 ± 9
UACUUAUACAUGUAAACCAAA	28.2 ± 1.4	55.5 ± 3.8	42.2 ± 2.4	76.9 ± 6.6
UACUAUCACAUGUAAACCAAA	51.6 ± 5.5	67.9 ± 8.1	41.4 ± 3	61.8 ± 16
UUCCGAUACAUGUAAACCAAA	69.4 ± 14	80.1 ± 7.3	88.3 ± 13	65.8 ± 12
UUAAGACACAUGUAAACCAAA	62.2 ± 13	70 ± 2.7	65.5 ± 6	51 ± 7.7
UCGCUCCACAUGUAAACCAAA	41.9 ± 0.92	10.5 ± 2.1	20 ± 2.5	28.3 ± 3.5
UUAGAGGACAUGUAAACCAAA	45.3 ± 13	51 ± 1.4	51.7 ± 5.2	30.9 ± 3.1
UACACAUACAUGUAAACCAAA	28.4 ± 6.9	82.4 ± 5.7	61.7 ± 10	92 ± 13
UAGUACCACAUGUAAACCAAA	47.4 ± 9.9	21.9 ± 3.5	57.8 ± 3.9	18.9 ± 2.7
UUUUGAAACAUGUAAACCAAA	91.8 ± 7.6	64.3 ± 7.2	101 ± 3.3	92.9 ± 2.1
UUCAUGUACAUGUAAACCAAA	30.6 ± 5.3	52.5 ± 8.8	70.1 ± 5.5	48.4 ± 12
UGGCUAAACAUGUAAACCAAA	37.2 ± 4	46.2 ± 4	20.8 ± 4.1	69.8 ± 2.4
UCCGACGACAUGUAAACCAAA	80.1 ± 14	68.1 ± 5.9	82.7 ± 2.4	111 ± 18
UUCCACAACAUGUAAACCAAA	107 ± 19	32.9 ± 2.5	96.5 ± 12	106 ± 17
UCGUGACACAUGUAAACCAAA	35 ± 7.6	29.9 ± 0.89	33.9 ± 3.3	49.9 ± 9.2
UACGUUAACAUGUAAACCAAA	73.3 ± 9.8	85.7 ± 17	92.2 ± 3.6	95.2 ± 12
UUCCGGCACAUGUAAACCAAA	43.9 ± 9.9	37.4 ± 0.78	49.6 ± 9	39.1 ± 12

Sequence	cell viability (M565) [%]	cell viability (H460) [%]	cell viability (HeyA8) [%]	cell viability (3LL) [%]
UUGUCACACAUGUAAACCAAA	42.9 ± 7.7	66 ± 6.3	76.6 ± 5	40.7 ± 1.1
UAGGGGGACAUGUAAACCAAA	6.97 ± 0.42	25.4 ± 5.8	5.57 ± 0.23	66.7 ± 15
UACAUUAACAUGUAAACCAAA	83 ± 21	71.2 ± 14	97.1 ± 8.9	91.3 ± 3.4
UGGAAAAACAUGUAAACCAAA	87.5 ± 17	67.9 ± 9.9	98.8 ± 6.7	101 ± 16
UUGGUAAACAUGUAAACCAAA	98.6 ± 11	71.6 ± 6.8	84.3 ± 6.4	92.7 ± 6.2
UCUAAGUACAUGUAAACCAAA	64.4 ± 14	51.5 ± 5.9	82.3 ± 6.9	94.4 ± 12
UACUUUUACAUGUAAACCAAA	109 ± 13	79.3 ± 12	61 ± 1.9	87.4 ± 4.1
UGCCGUCACAUGUAAACCAAA	8.92 ± 7.6	50.7 ± 5.6	27 ± 0.91	46.4 ± 7.1
UGAGUUGACAUGUAAACCAAA	22.5 ± 8.7	63.3 ± 1.7	45.8 ± 4.3	94.1 ± 16
UUCUCUAACAUGUAAACCAAA	89.4 ± 11	56.1 ± 7.5	99.2 ± 9.4	104 ± 10
UAAAACCACAUGUAAACCAAA	34.1 ± 8.2	38.3 ± 2.8	63.7 ± 3.7	56.8 ± 9.3
UUAUCCCACAUGUAAACCAAA	42.9 ± 6	19.3 ± 0.95	6.66 ± 1.4	2.65 ± 0.67
UACUUUCACAUGUAAACCAAA	81.4 ± 14	55.2 ± 1.9	48.3 ± 8.3	72.5 ± 20
UAAGCGAACAUGUAAACCAAA	62.9 ± 4.7	83.1 ± 24	93.2 ± 9.9	85.8 ± 8.3
UGCGCGAACAUGUAAACCAAA	66.1 ± 2.4	88.8 ± 6.9	67.3 ± 6.9	95.2 ± 16
UAUUCUCACAUGUAAACCAAA	38.6 ± 3.5	60.7 ± 7.3	86.1 ± 11	41.9 ± 5
UGUAUAAACAUGUAAACCAAA	47.9 ± 1.7	74.5 ± 7.6	95.9 ± 7.5	92.3 ± 9.1
UGAAAUCACAUGUAAACCAAA	46.9 ± 3	59.4 ± 2.9	32.5 ± 2.5	47.2 ± 9.2
UGCGUGUACAUGUAAACCAAA	21 ± 2.9	67.3 ± 4.4	46.3 ± 4.9	73.8 ± 12
UCUACGCACAUGUAAACCAAA	68.7 ± 6.8	53.8 ± 6.6	74.6 ± 3.3	93.9 ± 13

Sequence	cell viability (M565) [%]	cell viability (H460) [%]	cell viability (HeyA8) [%]	cell viability (3LL) [%]
UUCCCAUACAUGUAAACCAAA	75.4 ± 14	83.4 ± 12	88 ± 2	70.7 ± 8.7
UAUUUGAACAUGUAAACCAAA	114 ± 12	101 ± 11	92.1 ± 6.1	83.8 ± 14
UAGCACUACAUGUAAACCAAA	13.4 ± 3.5	51.7 ± 8.6	47.3 ± 2.3	26.8 ± 11
UGCCUAGACAUGUAAACCAAA	50.3 ± 2.1	43 ± 1.4	67.8 ± 4.4	78.5 ± 13
UUAAAAAACAUGUAAACCAAA	100 ± 23	75.5 ± 5.8	98.5 ± 5.7	97.5 ± 7.7
UCUGAGGACAUGUAAACCAAA	33.1 ± 7.5	58.5 ± 5.2	75.3 ± 5	98.8 ± 9.8
UCAUAGUACAUGUAAACCAAA	16.4 ± 6.3	32.5 ± 4.8	43.7 ± 4.5	84.7 ± 17
UAUGAUAACAUGUAAACCAAA	101 ± 12	63.3 ± 6.8	93.2 ± 9.2	113 ± 16
UUCGGAGACAUGUAAACCAAA	49.3 ± 5.7	80.9 ± 10	70.6 ± 10	75.5 ± 16
UGGCAGCACAUGUAAACCAAA	7.28 ± 1.1	21.1 ± 0.76	1.74 ± 0.23	5.78 ± 0.91
UUUGUACACAUGUAAACCAAA	79.8 ± 14	68.6 ± 0.68	69.4 ± 3.3	86.7 ± 6.1
UACCGUUACAUGUAAACCAAA	21.2 ± 2.9	75 ± 11	77 ± 6.8	82 ± 6.5
UGCUAUUACAUGUAAACCAAA	85 ± 4.4	50 ± 2.2	49.9 ± 4.6	79.1 ± 10
UCGGGAGACAUGUAAACCAAA	49.7 ± 2.6	54.1 ± 4.9	58.4 ± 1.5	88.1 ± 18
UGCGUCCACAUGUAAACCAAA	27.1 ± 3.9	55.9 ± 5	38.7 ± 4.6	9.95 ± 1.1
UACGACUACAUGUAAACCAAA	52.9 ± 5.1	73.8 ± 14	60.5 ± 5.8	88.2 ± 11
UGAGACUACAUGUAAACCAAA	9.1 ± 2.9	13.7 ± 1.8	10.9 ± 1.2	67.9 ± 12
UGAUUGAACAUGUAAACCAAA	90 ± 9.3	58.4 ± 8.5	51.7 ± 6.4	77.8 ± 17
UCACCUCACAUGUAAACCAAA	60.3 ± 9.2	32.4 ± 7.1	57.9 ± 1.4	74.9 ± 19
UGGGGGCACAUGUAAACCAAA	7.44 ± 1.4	8.02 ± 0.84	1.52 ± 0.12	6.6 ± 3.6
